From paper PMC4336329 (PLoS ONE, 2015)
About 2,200 (0.71%) of roughly 310,000 compounds showed an effect of 50% or more. Effects have a minus sign here. This is one part of the list.

target: human ether-à-go-go-related gene (hERG) potassium channel (human, UniProt Q12809); test: primary screen, population patch clamp on CHO cells stably expressing hERG
Sequence (Q12809 whole entry, looked up): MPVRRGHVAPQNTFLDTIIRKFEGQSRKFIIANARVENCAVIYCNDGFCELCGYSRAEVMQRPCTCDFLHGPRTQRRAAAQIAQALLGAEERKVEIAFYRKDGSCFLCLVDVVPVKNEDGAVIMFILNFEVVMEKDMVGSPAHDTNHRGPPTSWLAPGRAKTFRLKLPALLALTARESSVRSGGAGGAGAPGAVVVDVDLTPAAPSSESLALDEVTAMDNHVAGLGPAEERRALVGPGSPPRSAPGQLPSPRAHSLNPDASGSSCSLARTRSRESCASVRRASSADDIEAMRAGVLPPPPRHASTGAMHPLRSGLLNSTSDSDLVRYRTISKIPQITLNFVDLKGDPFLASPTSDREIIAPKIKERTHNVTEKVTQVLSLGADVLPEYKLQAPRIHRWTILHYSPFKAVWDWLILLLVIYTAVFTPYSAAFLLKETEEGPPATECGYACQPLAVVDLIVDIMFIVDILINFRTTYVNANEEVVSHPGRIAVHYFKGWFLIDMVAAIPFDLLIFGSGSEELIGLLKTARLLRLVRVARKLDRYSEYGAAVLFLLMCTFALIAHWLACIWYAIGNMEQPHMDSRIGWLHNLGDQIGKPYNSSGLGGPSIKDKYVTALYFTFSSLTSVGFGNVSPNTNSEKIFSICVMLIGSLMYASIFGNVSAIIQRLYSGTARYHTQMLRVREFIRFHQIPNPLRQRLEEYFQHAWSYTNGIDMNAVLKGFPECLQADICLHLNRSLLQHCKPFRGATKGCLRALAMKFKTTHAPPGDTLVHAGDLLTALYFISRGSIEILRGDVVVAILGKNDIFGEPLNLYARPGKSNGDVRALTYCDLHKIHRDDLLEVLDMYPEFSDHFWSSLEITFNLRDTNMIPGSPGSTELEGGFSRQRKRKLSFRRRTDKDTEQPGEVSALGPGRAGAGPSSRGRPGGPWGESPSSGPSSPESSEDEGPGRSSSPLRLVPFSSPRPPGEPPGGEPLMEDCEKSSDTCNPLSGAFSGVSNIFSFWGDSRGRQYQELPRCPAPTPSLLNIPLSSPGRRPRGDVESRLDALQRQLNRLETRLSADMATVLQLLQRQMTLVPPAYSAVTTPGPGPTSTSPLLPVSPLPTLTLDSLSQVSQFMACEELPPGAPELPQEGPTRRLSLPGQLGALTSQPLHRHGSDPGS

Row | SMILES | hERG current change (%, negative = inhibition) at 1uM [%]
1 | COc1cc(OC)c(OC)cc1CN1CCc2ccccc2C1 | 13.2
2 | CCc1cc(=O)oc2cc(OCC(=O)NCC3CCC(C(=O)O)CC3)ccc12 (stereo not drawn) | -2.63
3 | CCOc1ccc(N(CC(=O)NCCSCc2ccc(Cl)cc2)S(C)(=O)=O)cc1 | 11.2
4 | COc1cc(CNCC(C)C)c(Br)cc1OCC(=O)NCc1ccccc1 | 0.825
5 | N#Cc1c(N)c2ccccn2c1C(=O)c1ccc(Br)cc1 | 16
6 | C#CCOC(=O)C1C2C=CC(C2)C1C(=O)O (stereo not drawn) | 3.58
7 | COc1cccc(C(=O)NC2CCN(C(=O)N3c4ccccc4Sc4ccccc43)CC2)c1 | -3.22
8 | O=C(CSc1nnc(-c2cccs2)n1C1CC1)NCC1CCCO1 (stereo not drawn) | 7.08
9 | CC(C)C[C@@H](CO)N1CCNCCC1=O | 15.7
10 | Cc1oc2c(Cl)c(Cl)c(O)c(CN(C)C)c2c1C(=O)c1ccc(Cl)cc1 | 17.8
11 | COc1ccc(NC(=O)C(C)N2C(=O)c3ccccc3C2=O)cc1S(=O)(=O)N1CCOCC1 (stereo not drawn) | 15.8
12 | O=C(Nc1nnc(CCN2CCCCC2)s1)c1ccc(Br)cc1 | -8.18
13 | CS(=O)(=O)c1ccc(Cl)c(NC(=O)c2cccc(N3C(=O)CCC3=O)c2)c1 | 9.67
14 | O=c1cnn(Cc2c(Cl)cccc2Cl)c2ccccc12 | -0.134
15 | CC(=O)c1ccc(OCc2cc(C(=O)N3CCC(Oc4ccccc4C)CC3)no2)cc1 | 9.86
16 | CCOc1ccc2ccccc2c1C(=O)N[C@@H]1C(=O)N2[C@@H]1SC(C)(C)[C@@H]2C(=O)[O-].O.[Na+] | 16
17 | CCOC(=O)N1CCN(C(=O)c2cnc3n(c2=O)CCS3)CC1 | 9.51
18 | CC(=O)Nc1ccc(NC(=O)COc2cc(C)cc3oc(=O)cc(C)c23)cc1 | 9.52
19 | O=C(NC1CCCC1)C1CCCN(S(=O)(=O)c2cccc3cccnc23)C1 (stereo not drawn) | 9.49
20 | O=c1[nH]c(CSc2nnc(-c3ccncc3)n2Cc2ccco2)nc2ccccc12 | -32.8
21 | O=C(COC(=O)c1ccccc1-n1cnnn1)c1ccc(Br)cc1 | 3.96
22 | Cc1cc(C)c(S(=O)(=O)c2c(C)cccc2C)c(OCC(C)C)n1 | 8.38
23 | Cn1c2c(c(=O)n(C)c1=O)C(NC(=O)c1ccco1)(C(F)(F)F)C(=O)N2 (stereo not drawn) | 13.6
24 | CC(C)NC(=O)CN(Cc1ccccc1)S(=O)(=O)c1ccccc1 | 7.8
